{"source": "a collection of fitness landscapes (doi:10.1126/science.1257360)", "parents": {"B1": {"name": "PhoQ; a variant is named by its letters at X, in order, P23837 (parent)", "chain": "MKKLLRLFFPLSLRVRFLLATAAVVLVLSLAYGMVALIGYSVSFDKTTFRLLRGESNLFYTLAKWENNKLHVELPENIDKQSPTMTLIYDENGQLLWAQRDVPWLMKMIQPDWLKSNGFHEIEADVNDTSLLLSGDHSIQQQLQEVREDDDDAEMTHSVAVNVYPATSRMPKLTIVVVDTIPVELKSSYMVWSWFIYVLSANLLLVIPLLWVAAWWSLRPIEALAKEVRELEEHNRELLNPATTRELTSLVRNLNRLLKSERERYDKYRTTLTDLTHSLKTPLXXLQXXLRSLRSEKMSVSDAEPVMLEQISRISQQIGYYLHRASMRGGTLLSRELHPVAPLLDNLTSALNKVYQRKGVNISLDISPEISFVGEQNDFVEVMGNVLDNACKYCLEFVEISARQTDEHLYIVVEDDGPGIPLSKREVIFDRGQRVDTLRPGQGVGLAVAREITEQYEGKIVAGESMLGGARMEVIFGRQHSAPKDE"}}, "note": "The other results are listed elsewhere or left out.", "data": [{"variants_of": "B1", "experiment": "enrichment ratio after two sorts for PhoP signalling (ratio (wild type AVST 3.29)); higher = more functional", "conditions": "with PhoP (E. coli)", "values": [{"variant": "HLQS", "enrichment ratio": "≤ 0.25"}, {"variant": "WQRF", "enrichment ratio": "≤ 0.25"}, {"variant": "QFCM", "enrichment ratio": "≤ 0.25"}, {"variant": "YVNC", "enrichment ratio": "≤ 0.25"}, {"variant": "LPFL", "enrichment ratio": "≤ 0.25"}, {"variant": "AINM", "enrichment ratio": "≤ 0.25"}, {"variant": "DCAK", "enrichment ratio": "≤ 0.25"}, {"variant": "RMPT", "enrichment ratio": "≤ 0.25"}, {"variant": "PLAG", "enrichment ratio": 0.499}, {"variant": "PHLC", "enrichment ratio": "≤ 0.25"}, {"variant": "ENYF", "enrichment ratio": "≤ 0.25"}, {"variant": "NQDF", "enrichment ratio": "≤ 0.25"}, {"variant": "HELS", "enrichment ratio": 0.936}, {"variant": "DQGP", "enrichment ratio": "≤ 0.25"}, {"variant": "SSIT", "enrichment ratio": 6.16}, {"variant": "STDD", "enrichment ratio": "≤ 0.25"}, {"variant": "YPDW", "enrichment ratio": "≤ 0.25"}, {"variant": "WQLM", "enrichment ratio": 15.8}, {"variant": "YSRN", "enrichment ratio": "≤ 0.25"}, {"variant": "KDVQ", "enrichment ratio": "≤ 0.25"}, {"variant": "HRWF", "enrichment ratio": "≤ 0.25"}, {"variant": "AVQM", "enrichment ratio": "≤ 0.25"}, {"variant": "VMAD", "enrichment ratio": "≤ 0.25"}, {"variant": "PAKT", "enrichment ratio": "≤ 0.25"}, {"variant": "SEEH", "enrichment ratio": 10.2}, {"variant": "HASS", "enrichment ratio": "≤ 0.25"}, {"variant": "GGWP", "enrichment ratio": "≤ 0.25"}, {"variant": "RAHP", "enrichment ratio": "≤ 0.25"}, {"variant": "TPIN", "enrichment ratio": "≤ 0.25"}, {"variant": "YYSC", "enrichment ratio": "≤ 0.25"}, {"variant": "NYRW", "enrichment ratio": "≤ 0.25"}, {"variant": "YADA", "enrichment ratio": "≤ 0.25"}, {"variant": "QSVQ", "enrichment ratio": "≤ 0.25"}, {"variant": "DMNQ", "enrichment ratio": "≤ 0.25"}, {"variant": "NLDM", "enrichment ratio": "≤ 0.25"}, {"variant": "RPDQ", "enrichment ratio": "≤ 0.25"}, {"variant": "IFFT", "enrichment ratio": "≤ 0.25"}, {"variant": "NMGT", "enrichment ratio": "≤ 0.25"}, {"variant": "VHIS", "enrichment ratio": "≤ 0.25"}, {"variant": "VQIW", "enrichment ratio": "≤ 0.25"}, {"variant": "DYHV", "enrichment ratio": "≤ 0.25"}, {"variant": "HVEP", "enrichment ratio": 0.392}, {"variant": "NPSG", "enrichment ratio": "≤ 0.25"}, {"variant": "VWYF", "enrichment ratio": "≤ 0.25"}, {"variant": "FHKM", "enrichment ratio": "≤ 0.25"}, {"variant": "HDLV", "enrichment ratio": "≤ 0.25"}, {"variant": "RQLC", "enrichment ratio": "≤ 0.25"}, {"variant": "WIFF", "enrichment ratio": "≤ 0.25"}, {"variant": "SCKT", "enrichment ratio": "≤ 0.25"}, {"variant": "REEF", "enrichment ratio": "≤ 0.25"}, {"variant": "GRFT", "enrichment ratio": "≤ 0.25"}, {"variant": "DAWL", "enrichment ratio": "≤ 0.25"}, {"variant": "MCNR", "enrichment ratio": "≤ 0.25"}, {"variant": "ARPQ", "enrichment ratio": "≤ 0.25"}, {"variant": "ERHT", "enrichment ratio": "≤ 0.25"}, {"variant": "WHFP", "enrichment ratio": "≤ 0.25"}, {"variant": "PLPI", "enrichment ratio": "≤ 0.25"}, {"variant": "KHTW", "enrichment ratio": "≤ 0.25"}, {"variant": "QLID", "enrichment ratio": "≤ 0.25"}, {"variant": "TERF", "enrichment ratio": "≤ 0.25"}, {"variant": "MRQG", "enrichment ratio": "≤ 0.25"}, {"variant": "GVWP", "enrichment ratio": "≤ 0.25"}, {"variant": "MDHN", "enrichment ratio": "≤ 0.25"}, {"variant": "SAFY", "enrichment ratio": "≤ 0.25"}, {"variant": "HLPS", "enrichment ratio": 0.388}, {"variant": "FSNC", "enrichment ratio": "≤ 0.25"}, {"variant": "HWQI", "enrichment ratio": "≤ 0.25"}, {"variant": "KKSK", "enrichment ratio": "≤ 0.25"}, {"variant": "EYLF", "enrichment ratio": "≤ 0.25"}, {"variant": "TIFP", "enrichment ratio": "≤ 0.25"}, {"variant": "IIND", "enrichment ratio": "≤ 0.25"}, {"variant": "KFDL", "enrichment ratio": "≤ 0.25"}, {"variant": "GARQ", "enrichment ratio": "≤ 0.25"}, {"variant": "VVSY", "enrichment ratio": "≤ 0.25"}, {"variant": "WHAI", "enrichment ratio": "≤ 0.25"}, {"variant": "KILL", "enrichment ratio": "≤ 0.25"}, {"variant": "VKGY", "enrichment ratio": 0.318}, {"variant": "ACIA", "enrichment ratio": 5.55}, {"variant": "IHVS", "enrichment ratio": "≤ 0.25"}, {"variant": "INGI", "enrichment ratio": "≤ 0.25"}, {"variant": "FVCY", "enrichment ratio": "≤ 0.25"}, {"variant": "ESCV", "enrichment ratio": "≤ 0.25"}, {"variant": "QRRD", "enrichment ratio": "≤ 0.25"}, {"variant": "QREG", "enrichment ratio": "≤ 0.25"}, {"variant": "VTIN", "enrichment ratio": "≤ 0.25"}, {"variant": "TWMP", "enrichment ratio": "≤ 0.25"}, {"variant": "SDSP", "enrichment ratio": "≤ 0.25"}, {"variant": "SYGC", "enrichment ratio": "≤ 0.25"}, {"variant": "ENKS", "enrichment ratio": "≤ 0.25"}, {"variant": "HMQY", "enrichment ratio": "≤ 0.25"}, {"variant": "MHHD", "enrichment ratio": "≤ 0.25"}, {"variant": "LYVG", "enrichment ratio": "≤ 0.25"}, {"variant": "TIFY", "enrichment ratio": "≤ 0.25"}, {"variant": "NCDR", "enrichment ratio": "≤ 0.25"}, {"variant": "TWDR", "enrichment ratio": "≤ 0.25"}, {"variant": "PNIR", "enrichment ratio": "≤ 0.25"}, {"variant": "FSAR", "enrichment ratio": "≤ 0.25"}, {"variant": "CIIS", "enrichment ratio": "≤ 0.25"}, {"variant": "WPWP", "enrichment ratio": "≤ 0.25"}, {"variant": "AGSN", "enrichment ratio": 7.26}, {"variant": "SMAE", "enrichment ratio": 25.2}, {"variant": "LCDG", "enrichment ratio": "≤ 0.25"}, {"variant": "KGEY", "enrichment ratio": "≤ 0.25"}, {"variant": "TKHW", "enrichment ratio": "≤ 0.25"}, {"variant": "TSYW", "enrichment ratio": "≤ 0.25"}, {"variant": "GDRH", "enrichment ratio": "≤ 0.25"}, {"variant": "WITP", "enrichment ratio": "≤ 0.25"}, {"variant": "QMPD", "enrichment ratio": "≤ 0.25"}, {"variant": "KMKT", "enrichment ratio": "≤ 0.25"}, {"variant": "IGTH", "enrichment ratio": "≤ 0.25"}, {"variant": "FIYR", "enrichment ratio": "≤ 0.25"}, {"variant": "VHEN", "enrichment ratio": "≤ 0.25"}, {"variant": "NFDI", "enrichment ratio": "≤ 0.25"}, {"variant": "CICR", "enrichment ratio": "≤ 0.25"}, {"variant": "NRVW", "enrichment ratio": "≤ 0.25"}, {"variant": "ETNR", "enrichment ratio": "≤ 0.25"}, {"variant": "WTFN", "enrichment ratio": "≤ 0.25"}, {"variant": "DKQT", "enrichment ratio": "≤ 0.25"}, {"variant": "DKRV", "enrichment ratio": "≤ 0.25"}, {"variant": "MKQN", "enrichment ratio": "≤ 0.25"}, {"variant": "SLVV", "enrichment ratio": 1.38}, {"variant": "IEFL", "enrichment ratio": "≤ 0.25"}, {"variant": "EQRA", "enrichment ratio": "≤ 0.25"}, {"variant": "NGEA", "enrichment ratio": "≤ 0.25"}, {"variant": "EDMK", "enrichment ratio": "≤ 0.25"}, {"variant": "NSNH", "enrichment ratio": "≤ 0.25"}, {"variant": "EMMD", "enrichment ratio": "≤ 0.25"}, {"variant": "QACM", "enrichment ratio": "≤ 0.25"}, {"variant": "PRGD", "enrichment ratio": "≤ 0.25"}, {"variant": "GMAP", "enrichment ratio": "≤ 0.25"}, {"variant": "LFFR", "enrichment ratio": "≤ 0.25"}, {"variant": "GGMD", "enrichment ratio": "≤ 0.25"}, {"variant": "GYRS", "enrichment ratio": "≤ 0.25"}, {"variant": "IYRL", "enrichment ratio": "≤ 0.25"}, {"variant": "IYMH", "enrichment ratio": "≤ 0.25"}, {"variant": "YCEL", "enrichment ratio": "≤ 0.25"}, {"variant": "EGPL", "enrichment ratio": "≤ 0.25"}, {"variant": "TEYC", "enrichment ratio": 12.6}, {"variant": "MKCR", "enrichment ratio": "≤ 0.25"}, {"variant": "GYGF", "enrichment ratio": "≤ 0.25"}, {"variant": "VVIC", "enrichment ratio": "≤ 0.25"}, {"variant": "ECRH", "enrichment ratio": "≤ 0.25"}, {"variant": "IAKF", "enrichment ratio": "≤ 0.25"}, {"variant": "NHKC", "enrichment ratio": "≤ 0.25"}, {"variant": "CLLF", "enrichment ratio": "≤ 0.25"}, {"variant": "VPGC", "enrichment ratio": "≤ 0.25"}, {"variant": "MMQR", "enrichment ratio": "≤ 0.25"}, {"variant": "TQEI", "enrichment ratio": "≤ 0.25"}, {"variant": "HHIF", "enrichment ratio": "≤ 0.25"}, {"variant": "NYYE", "enrichment ratio": "≤ 0.25"}, {"variant": "GPLV", "enrichment ratio": "≤ 0.25"}, {"variant": "MYRD", "enrichment ratio": "≤ 0.25"}, {"variant": "SDPI", "enrichment ratio": "≤ 0.25"}, {"variant": "YKTK", "enrichment ratio": "≤ 0.25"}, {"variant": "SENN", "enrichment ratio": 3.72}, {"variant": "KGAQ", "enrichment ratio": "≤ 0.25"}, {"variant": "SMNE", "enrichment ratio": "≤ 0.25"}, {"variant": "GKIN", "enrichment ratio": "≤ 0.25"}, {"variant": "NTMF", "enrichment ratio": "≤ 0.25"}, {"variant": "SVNE", "enrichment ratio": "≤ 0.25"}, {"variant": "DRLC", "enrichment ratio": "≤ 0.25"}, {"variant": "GFEQ", "enrichment ratio": "≤ 0.25"}, {"variant": "TAGA", "enrichment ratio": 8.8}, {"variant": "NNQP", "enrichment ratio": "≤ 0.25"}, {"variant": "VDKI", "enrichment ratio": "≤ 0.25"}, {"variant": "WKMG", "enrichment ratio": "≤ 0.25"}, {"variant": "TPTK", "enrichment ratio": "≤ 0.25"}, {"variant": "VDGA", "enrichment ratio": "≤ 0.25"}, {"variant": "IPGQ", "enrichment ratio": "≤ 0.25"}, {"variant": "NEDS", "enrichment ratio": "≤ 0.25"}, {"variant": "KGRD", "enrichment ratio": "≤ 0.25"}, {"variant": "TPCA", "enrichment ratio": "≤ 0.25"}, {"variant": "FLVS", "enrichment ratio": "≤ 0.25"}, {"variant": "LIMC", "enrichment ratio": "≤ 0.25"}, {"variant": "LDRK", "enrichment ratio": "≤ 0.25"}, {"variant": "LDSG", "enrichment ratio": "≤ 0.25"}, {"variant": "TCRE", "enrichment ratio": "≤ 0.25"}, {"variant": "ECSG", "enrichment ratio": "≤ 0.25"}, {"variant": "PYDQ", "enrichment ratio": "≤ 0.25"}, {"variant": "DMTQ", "enrichment ratio": "≤ 0.25"}, {"variant": "VQCM", "enrichment ratio": 2.11}, {"variant": "LFKD", "enrichment ratio": "≤ 0.25"}, {"variant": "PCTC", "enrichment ratio": "≤ 0.25"}, {"variant": "WTKH", "enrichment ratio": "≤ 0.25"}, {"variant": "ICWR", "enrichment ratio": "≤ 0.25"}, {"variant": "LPNM", "enrichment ratio": "≤ 0.25"}, {"variant": "QFGC", "enrichment ratio": "≤ 0.25"}, {"variant": "SKFR", "enrichment ratio": "≤ 0.25"}, {"variant": "QYIA", "enrichment ratio": "≤ 0.25"}, {"variant": "VPSR", "enrichment ratio": "≤ 0.25"}, {"variant": "KAHP", "enrichment ratio": "≤ 0.25"}, {"variant": "FGPP", "enrichment ratio": "≤ 0.25"}, {"variant": "RDWY", "enrichment ratio": "≤ 0.25"}, {"variant": "TKIV", "enrichment ratio": 11.9}, {"variant": "NLYC", "enrichment ratio": "≤ 0.25"}]}]}
